# Results from PubChem BioAssay AID1347070 (National Center for Advancing Translational Sciences (NCATS), 2019).
# The campaign covered roughly 94,000 compounds. About 20 (0.02%) were called active. The inconclusive results got no clear call from the source; some entries with a clear call stand among them for comparison. Calls come from the whole dose curve; as a rule, active = well fitted activation curve with a large enough effect; inconclusive = small, poorly fitted or top-dose-only effect; inactive = flat fitted curve, though single readings scatter. No potency is given beside an inconclusive call; the fits are too rough.
# Assay: qHTS of alpha-syn Inhibitors: NCGC Sytravon Library Screen; for growth rescue (activation): 0% is about no effect
# Conditions: S. cerevisiae alpha-synuclein toxicity rescue, BacTiter-Glo growth, 24 h; growth rescue (activation): at 46.1 µM (top of the series)
# Method in brief: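 Growth restoration measured by BacTiter-Glo luminescence after 24 hr at 30 deg C; alpha-synuclein yeast, raffinose-pregrown to mid-log, were added at OD600=0.02 in galactose medium onto pinned compounds.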
# Potency is the fitted concentration of half-maximal effect; tags give direction and shape of the fitted curve.
Structure (SMILES),Potency,growth rescue (activation)
CCc1ccc(OC(C)C(=O)N2CCC(c3nc4ccccc4s3)CC2)cc1 (stereo not drawn),"inconclusive [activator, single point]",–
O=C(CN1CCN(C(=O)C2COc3ccccc3O2)CC1)Nc1ccc(F)cc1 (stereo not drawn),–,inconclusive: 253% [activator]
Cc1ccc(-c2noc(CSc3nnc(Cc4ccccc4)n3-c3cccc(C)c3)n2)cc1,"inconclusive [activator, single point]",–
CCOc1ccc(NC(=O)CC2C(=O)OCCN2CC)cc1 (stereo not drawn),–,inactive: -81.2%
COc1ccc(/C=C/C(=O)c2cc(F)ccc2OC(=O)c2ccccc2OC)cc1OC,–,inconclusive: 30.7% [activator]
CCOc1ccc(NC(=O)CCCc2nc(-c3cccc(OC)c3)no2)cc1,–,inactive: -4.5%
CC(C)c1ccc2oc(-c3ccc(Cl)c(NC(=O)c4cccs4)c3)nc2c1,"inconclusive [activator, single point]",–
CCOc1cccc(NC(=O)C2CC(=O)N(C)C(=Nc3cccc(OC)c3)S2)c1 (stereo not drawn),"inconclusive [activator, single point]",–
Cc1nn(C(=O)c2ccccc2)c(C)c1Sc1ccc(Cl)cc1,"inconclusive [activator, single point]",–
CSc1ccc(CCNC(=O)Cn2ncc3c(=O)oc4ccccc4c32)cc1,–,inactive: -5.91%
O=C(C1CCN(c2ncnc3c2nc2n3CCCCC2)CC1)N1CCN(c2ccc(F)cc2)CC1,"inconclusive [activator, single point]",–
S=C(NN=Cc1ccccn1)Nc1ccccn1,–,inconclusive: 98% [activator]
CCCCn1c(N)c(N(CC(C)C)C(=O)C2CCN(S(=O)(=O)c3ccc(Cl)cc3)CC2)c(=O)[nH]c1=O,–,inactive: -13.1%
CCCCNC(=O)Cn1ncc2c(C)n(Cc3cccc(Cl)c3)c(C)c2c1=O,–,inactive: 4.06%
COc1ccc(CCNS(=O)(=O)c2ccc(F)c(C(=O)Nc3ccc(Cl)cc3)c2)cc1OC,–,inactive: -2.47%
Cc1nc2sccn2c(=O)c1S(=O)(=O)N1CCN(c2ccc(F)cc2)CC1,"inconclusive [activator, single point]",–
Cc1ccccc1SCC(=O)N1CCN(c2ccc(C(F)(F)F)cn2)CC1,–,inconclusive: 78.9% [activator]
COC(=O)C1=C(C)N(c2ccc(OC)c(OC)c2)C(=O)/C1=C\c1cccs1,–,inactive: -8.83%
COc1cccc(N2CC(NS(=O)(=O)c3cccs3)CC2=O)c1 (stereo not drawn),–,inactive: 1.66%
COc1cccc(NC(=O)CN2C(=O)CC(c3ccco3)Sc3ccccc32)c1 (stereo not drawn),"inconclusive [activator, single point]",–
CCOc1cc(C(Nc2cc(C)ccn2)c2ccc3cccnc3c2O)ccc1OC (stereo not drawn),"inconclusive [activator, single point]",–
CCCCC(=O)NC(c1ccco1)c1cc(Cl)c2cccnc2c1O (stereo not drawn),–,inconclusive: 159% [activator]
Cc1cccc2sc(N(Cc3cccnc3)C(=O)c3ccco3)nc12,–,inactive: 14.4%
Cc1cccc(N(CC(=O)N2CCCC2)S(C)(=O)=O)c1C,–,inactive: -7.71%
CC1CCc2c(sc3nnn(CC(=O)Nc4c(C(C)C)cccc4C(C)C)c(=O)c23)C1 (stereo not drawn),–,inactive: 1.37%

Structure (SMILES),Potency,growth rescue (activation)
CCc1ccc(NC(=O)c2ccc(Cn3nc(N4CCN(c5ccccc5)CC4)ccc3=O)o2)cc1,–,inactive: -9.23%
CC(=O)c1ccc(NC(=O)c2cc3sccc3n2Cc2ccc(Cl)cc2)cc1,"inconclusive [activator, single point]",–
COc1ccc(CNc2oc(/C=C/c3cc(OC)c(OC)c(OC)c3)nc2C#N)cc1,–,inactive: 3.23%
COc1ccc(-n2c(-c3ccc(Cl)cc3)n[nH]c2=S)c(OC)c1,–,inactive: 2.94%
CCOC(=O)C1CCCN(C(=S)Nc2ccc(Nc3ccccc3)cc2)C1 (stereo not drawn),–,inconclusive: 330% [activator]
CCCCCSc1nnc2c(n1)OC(c1ccc(C)s1)N(C(C)=O)c1ccccc1-2 (stereo not drawn),–,inactive: -12.4%
Cc1cc(=O)[nH]c2nnc(SCc3cccc(F)c3)n12,–,inactive: -3.11%
CCn1c(=O)c2cc(C(=O)N(C)c3cc(C)ccc3C)sc2c2ccccc21,"inconclusive [activator, single point]",–
O=C(CCSCc1ccccc1F)N1CCN(c2ccc(F)cc2)CC1,"inconclusive [activator, single point]",–
COCCCNC(=O)Cn1c(=O)n(CCCC(=O)NCc2ccc(C)cc2)c(=O)c2ccccc21,–,inactive: -0.444%
COc1ccccc1C1=Nn2c(nc3sc(C(=O)Nc4ccccc4Cl)c(C)c3c2=O)SC1,–,inactive: -0.567%
Cc1nc2c(-c3ccccc3)c(C)nn2c(C)c1CCC(=O)N1CCN(c2ccccc2)CC1,"inconclusive [activator, single point]",–
O=C(Nc1nc(-c2ccc(Br)cc2)ns1)c1ccc(F)cc1,–,inactive: -5.47%
Cc1ccc(C(=O)c2oc3ccccc3c2NC(=O)c2cc(=O)c3ccccc3o2)cc1,"inconclusive [activator, single point]",–
COc1ccc2c(c1)C(C)=CC(C)(C)N2S(=O)(=O)c1ccc(C)cc1,–,inconclusive: 31.8% [activator]
Oc1cccc(C(Nc2ccccn2)c2ccc3cccnc3c2O)c1Cl (stereo not drawn),"inconclusive [activator, single point]",–
CCS(=O)(=O)N1CCc2cc(C(=O)N3CCN(c4cccc(C(F)(F)F)c4)CC3)ccc21,"inconclusive [activator, single point]",–
CCOc1ccc(-n2c(Cc3ccccc3)nnc2SCc2nc(-c3ccccc3C)no2)cc1,–,inactive: 6.86%
COc1cc(C)c(C(=O)CC(=O)c2c(C)cc(OC)cc2C)c(C)c1,–,inconclusive: 45.2% [activator]
COc1ccc(-c2cc3nc(C)c(CCC(=O)N4CCN(c5cccc(Cl)c5)CC4)c(C)n3n2)c(OC)c1,"inconclusive [activator, single point]",–
COC(=O)c1c(N2C(=O)CC(Sc3ccccc3C(=O)O)C2=O)sc(C)c1C (stereo not drawn),–,inconclusive: 44% [activator]
CCN(CC)S(=O)(=O)c1ccc(NC(=O)NCc2noc3ccc(C)cc23)cc1,–,inactive: -12.5%
O=C(COc1ccccc1)NCCc1csc(-c2ccc(Cl)cc2)n1,–,inconclusive: 33% [activator]
Cc1cccc(N(CC(O)Cn2c3ccccc3c3ccccc32)S(=O)(=O)c2ccc(F)cc2)c1 (stereo not drawn),"inconclusive [activator, single point]",–
CN(CCCNC(=O)c1cc2c(Cl)nc3ccccc3c2s1)Cc1ccccc1,"inconclusive [activator, single point]",–

Structure (SMILES),Potency,growth rescue (activation)
Cc1ccccc1S(=O)Cc1ccc(C(=O)N2CCN(c3cccc(C)c3C)CC2)o1 (stereo not drawn),"inconclusive [activator, partial curve]",–
COc1ccc(S(=O)(=O)N(Cc2nc(-c3ccccc3)no2)C2CCCCC2)cc1,–,inactive: 8.57%
CCc1ccc(C(=O)CC2(O)C(=O)N(CCc3ccccc3)c3ccc(Br)cc32)cc1 (stereo not drawn),"inconclusive [activator, single point]",–
CCc1ccccc1S(=O)(=O)Cc1ccc(C(=O)NCc2ccc(Cl)cc2)o1,"inconclusive [activator, single point]",–
COc1ccc(N(Cc2ccccc2)C(=O)c2nc(S(C)(=O)=O)ncc2Cl)cc1,"inconclusive [activator, full curve, poor fit]",–
CC1CCc2sc(C(=O)NN=C3CCCC3)cc2C1 (stereo not drawn),–,inactive: -11.3%
Cc1cc(C)c(NC(=O)CN2C(=O)NC(Cc3ccccc3)C2=O)c(C)c1 (stereo not drawn),–,inactive: -1.11%
COC(=O)c1ccc(NC(=O)CN2CCCN(Cc3ccc(Cl)cc3)S2(=O)=O)cc1,–,inactive: -0.851%
O=C(CC1N=C2c3ccccc3N=C(SCc3ccc(F)cc3)N2C1=O)NC1CCCCC1 (stereo not drawn),"inconclusive [activator, single point]",–
CCCNC(=O)C1=CC(c2ccc3c(c2)OCO3)=NS(=O)(=O)N1C,–,inactive: -0.836%
O=C(COc1ccccc1)N(Cc1cccnc1)c1nc2c(F)cccc2s1,"inconclusive [activator, single point]",–
Cc1nc2scc(C)n2c(=O)c1S(=O)(=O)Nc1ccc(N2CCN(S(C)(=O)=O)CC2)cc1,"inconclusive [activator, single point]",–
Cc1ccc(-n2cnc3cc(C(=O)NC4CCCCCC4)ccc32)c(C)c1,–,inactive: -8.27%
CC(C)CNC(=O)Nc1cc(C(=O)NCc2ccc(C(C)C)cc2)ccc1N1CCCC1,–,inactive: 3.62%
Cc1cc(C)c2nc(N(Cc3cccnc3)C(=O)Cc3ccccc3)sc2c1,active: 12.6 µM,–
O=C(Nc1cc(Cl)cc(Cl)c1)c1cc(S(=O)(=O)N2CCC3(CC2)OCCO3)ccc1F,"inconclusive [activator, single point]",–
Cc1ccc(C2c3[nH]c4ccccc4c3CCN2C(=O)CSCc2ccc(F)cc2)cc1 (stereo not drawn),active: 15.8 µM,–
O=C(NCc1cccs1)c1ccc(CSc2nc3ccncc3n2Cc2ccccc2F)cc1,–,inactive: -10.6%
CCOc1ccc(CNC(=O)c2ccc3c(c2)nc2n3CCCCC2)cc1,"inconclusive [activator, single point]",–
Cc1ccc(-c2nc(C(=O)N3CCN(c4ccccc4)CC3)c3n2CCCCC3)cc1,"inconclusive [activator, single point]",–
Cc1ccc(N2C(=O)CS(=O)(=O)C23C(=O)N(Cc2ccccc2C)c2ccccc23)cc1Cl (stereo not drawn),–,inactive: -11.8%
COc1cccc(Cn2ccn(-c3ccc(F)cc3)c(=O)c2=O)c1,–,inactive: 8.89%
Cc1ccc(C(=O)c2oc3ccccc3c2NC(=O)c2cc(=O)c3cc(C)ccc3o2)cc1,–,inactive: -7%
